Test results taken from the RNAGym collection of RNA variant scans (doi:10.7554/elife.90254).
The source gives no read counts; variants with many changes may rest on few reads.

B1: OR4K15 (parent)
chain: GUUAACGGUCAUAGGCCAUGGAAACUAGGAGCACCAUUUCGCUGCCAGUGAAGAAAUGAACAAAGAAAAUCUGGGCCAGGCAGGCAUCAAAAGAAAUAGUCUUGCGCUCAACCAGAAAGUCUGUAAUCAUUUUAAGGGUA

Variants of: B1
Assay: self-cleavage, relative activity (ratio to wild type); higher = more cleavage; in vitro, sequencing; the parent is a self-cleaving ribozyme

| Variant | self-cleavage |
| --- | --- |
| GUCAACGGUCAUAGGCCAUGGAAACUAGGAGCACCAUUUCGCUGCCAGUGAAGAAGUGAGCAAAGAAAAUCUGAGCCAGGCAGGCAUCAAAAGAAAUAGUCUUGCGCUCGACCAGAAAGUCUGUAAUCAUUUUAAGGGUA [U3C A56G A60G G74A A110G] | 0.19 |
| GUUAACGGCCAUAGGCCAUGGAAACUAGGAGCACCAUUUCGCUGCCAGUGAUGAAAUGAACAAAGGGAAUCUGGGCCAGGCAGGCAUCAAAAGAAAUAGUCUUGCGCUCAACCAGAAAGUCUGUAAUCAUUUUAAGGGUA [U9C A52U A66G A67G] | 0.89 |
| GUUAACGGUCAUAGGCCAUGGAAACUAGGAGCACCAUUUCGCUGCCAGUGAGGAAAUGAACAAAGAAAAUCUGGGCCAGGCAGGCAUCAAAAGAAGUAGUCUUGCGCUCAACCUGAAAGUCUGUAAUCAUUUUAAGGGUA [A52G A96G A114U] | 0.1 |
| GUUAACGGUCAUAGGCCAUGGAAACUAGGAGCACCAUUUCGCUGCCAGUGAAGAAAUGAGCAGAGAAAAUCUGAGCCAGGCAGGCAUCAAAAGAAAUAGUCUUGCGCUCAACCAGAAAGUCUGUAAUCAUUUUAAAGGUA [A60G A63G G74A G136A] | 0 |
| GUUAACGGUCAUAGGCCAUGGAAACUAGGAGCACCAUUUCGCUGCCAGUGAAGAAAUGAACGAAGAAUAUCUGGGCCAGGCAGGCAUCAAAAGAAAUAGUCUUGCGCUCAACCAGAAAGUCUGUAACCAUUUUAAGGGUA [A62G A68U U127C] | 0.95 |
| GUUAACGGUCAUAGGCCAUGGAAACUAGGAGCACCACGUCGCUGCCAGUGAAGAAAUGAGCAAAGAAGAUCUGGGCCAGGCAGGCAUCAAAAGAAAUAGUCUUGCGCUCAACCAGAAAGUCUGUAAUCAUUUUAAGGGUA [U37C U38G A60G A68G] | 1.11 |
| GUUAACGGUCAUAGGCCAUGGAAACUAGGAGCACCAUUUCGCUGCCAGUGAAGAGAUGAACAAAGCGAGUCAGGGCCAGGCAGGCAUCAAAGGAAAUAGUCUUGCGCCCAACCAGAAAGUCUGUAAUCAUUUUAAGGGUA [A55G A66C A67G A69G U72A A92G U108C] | 0.01 |
| GUUAACGGUCAUAGGCCAUGGAAACUAGGAGCACCAUUUCGCUGCCAGUGAAGAAAUGAACAAAGAGAAUCUGGGCCAGGCAGGCAUCAAAAGAAAUAGUCUUGCGCUCAACCAGAAAGUCUGUAGUCAUUUUAAGGGCA [A67G A126G U139C] | 0.87 |
| GUUAGCGGUCAUAGGCCACGGAAACUAGGAGCACCAUUUCGCUGCCAGUGAAGAAAUGAGCAAAGAAAGUCUGGGCCAGGCAGGCAUCAAAAGAAAUAGUCUUGCGCUCAACCAGAAAGUCUGUAAUCUUUUUAAGGGUA [A5G U19C A60G A69G A129U] | 0.34 |
| GUUAACGGUCAUAGGCCAUGGAAACUAGGAGCACCAUUUCGCUGCCAGUGAAGAAAUGAACAAAGAUCAUCUGGGCCAGGCAGGCAUCAAAAGAAAUAGUCUUGCGCUCAACCAGAAAGUCUGUAAUCAUUUUGAGGGUA [A67U A68C A134G] | 2.08 |
| GUUAACGGCCAUAGGCCAUGGAGACUAGGAGCACCAUUUCGCUGCCAGUGAAGAAAUGAGCAUAGAAGAUCUGGGCCAGGCAGGCAUCAAAAGAAAUAGUCUUGCGCUCAACCAGAAAGUCUGUAACCAUUUUAAGGGUA [U9C A23G A60G A63U A68G U127C] | 0.22 |
| GUUAACGGUCAUAGGCCAUGGAAACUAGGAGCACCAUUUCGCUGCCAGUGAGGAAAUGAACAGAGAAAAUCUGGGCCAGGCAGGCACCAAAGGAAAUAGUCUUGCGCUCAACCAGAAAGUCUGUAUUCAUUUUAAGGGUA [A52G A63G U87C A92G A126U] | 0.92 |
| GUUAACGGUCAUAGGCCAUGGAAACUAGGAGCACCAUUUCGCUGCCAGUGAAGCAAUGAACAAGGAAAAUCUGGGCCAGGCAGGCAUCAAAAGAAAAAGUCUUGCGCUCAACCAGAAAGUCUGUAAUCAUUUUAAGGGUA [A54C A64G U97A] | 0.75 |
| GUUAACGGUCAUAGGCCAUGGAACCUAGGAGCACCAUUUCGCUGCCAGUGAAGAAAUGAACAAAGGAAAUCUGGGCCAGGCAGGCAUCAAAAGAAAUAGUCUUGCGCUCAACCAGAAAGUCUGCAAUCAUUUUAAGGGUA [A24C A66G U124C] | 0.88 |
| GUUAACGGUCAUAGGCCAUGGAAACUAGGAGCACCAUUUCGCUGCCAGUGAAGAAAUGAACAAAGAAGAUCUGGGCCAGGCAGGCAUCAAGAGAAAUAGUCUUGCGCUCAACCAGAAAGCCUGUAAUCAUCUUAAGGGUA [A68G A91G U120C U131C] | 0.32 |
| GUUAACGGUCAUAGGCCAUGGAAACUAGGAGCACCAUUUCGCUGCCAGUGAGGAAAUGAACAAAGAAAAUCUGGGCCAGGCAGGCAUCACAAGAAAUAGUCUUGCGCUCAACCAGAAAGUCUGUAAUCAUCUUAAGGGUA [A52G A90C U131C] | 1.34 |
| GUUAACGGUCAUAGGCCGUGGAAACUAGGAGCACCAUUUCGCUGCCAGUGAAGGAAUGAACAAAGAAAAUCUGGGCCAGGCAGGCAUCAAAAGAAAUAGUCUUGCGCCCAACCAGAGAGUCUGUAAUCAUUUUAAGGGUA [A18G A54G U108C A117G] | 0.03 |
| GUUAACGGUCAUAGGCCAUGGAAACUAGGAGCACCAUUUCGCAGCCAGUGAAGAAAUGAACAAAGAAAAUCUGGGCCAGGCAGGCAUCAAAAGAAGUAGUCUUGCGCUCAACCAGAAAGUCUGUAAUCACUUUAAGGGUA [U43A A96G U130C] | 0.43 |
| GUUAACGGUCAUAGGCCAUGGAGACUAGGAGCACCAUUUCGCUGCCAGUGAAGGAAUGAACGAAGAAAAUCUGGGCCGGGCAGGCAUCAAAAGAAAUAGUCUUGCGCUCAACCAGAAAGUCUGUAAUCAUUUUAAGGGUA [A23G A54G A62G A78G] | 0.54 |
| GUUAACGGUCAUAGGCCAUGGAAACUAGGAGCACCAUUUCGCUGCCAGUGAAGAAAUGAACAAAGAAAAUCUGGGCCAGGCGGGCAUCAAAAGAAAUAGUCUUGCGCUCAACCAGAAGGUCUGUAGUCAUUUUAAGGGUA [A82G A118G A126G] | 0.3 |
| GUUAACGGUCGUAGGCCAUGGAGACUAGGAGCACCAUUUCGCUGCCAGUGAAGAAAUGAACAAAGAAAAUCAGGGCCAGGCAGGCAUCAAAAGAAAUAGUCUUGCGCACAACCAGAAAGUCUGUAAUCAUUUUAAGGGUA [A11G A23G U72A U108A] | 0.04 |
